# ChEMBL document CHEMBL4888484, “Replenishing the malaria drug discovery pipeline: Screening and hit evaluation of the MMV Hit Generation Library 1 (HGL1) against asexual blood stage Plasmodium falciparum ,using a nano luciferase reporter read-out” (2022)
# Screen size: about 150,000 compounds; about 540 (0.36%) showed an effect of 50% or more. This is one part of the list.
# Test system: Plasmodium falciparum
# Assay: Primary screen in NF54 nanoGlo assay, in single point, at 2uM, 72h; a lower Z score goes with more inhibition
# Type: functional, Erythrocyte
# Settings: timepoint 72 hour
Structure (SMILES),% Inhibition [%],Z score
COc1ccc(CCC(=O)N[C@H](c2nc3ccccc3n2C(C)C)C(C)C)cc1,-5,0.81
N#Cc1ccc(C(=O)N(CCC(F)(F)F)CC2CC2)nc1,5,-0.62
Cc1ccc(S(=O)(=O)N2CCCC2)cc1-c1nnc(-c2ccccc2)o1,-6,0.99
O=C(O)[C@H]1CN(C(=O)c2ccc3cc[nH]c3c2)C[C@@H]1C1CC1,5,-0.91
Cc1nc(-c2ccc(N3CCN(C(=O)c4cccs4)CC3)nc2)no1,10,-1.27
CCn1ncnc1CN(C)CCCn1cccn1,-5,0.8
COCCCNC(=O)c1n[nH]c2c1CN(C(=O)Cc1cccc(Cl)c1)CC2,-14,1.37
O=C(NCc1c(F)cccc1F)c1cc(O)ncn1,-5,0.9
Cc1ccc(C2(c3noc(COc4ccc(C)nc4)n3)CCCC2)cc1,-5,0.74
FC1(F)CN[C@H](CN2CCCCC2)C1,-10,1.36
CC1(C)C2CCC1(C)C(NS(=O)(=O)N1CCOCC1)C2 (stereo not drawn),-13,1.3
CCc1ccc(S(=O)(=O)Nc2cccn3nc(CC)nc23)cc1,3,-0.32
CCS(=O)(=O)N1CC(Oc2cccc(C)c2)C1,-10,1.37
CC(C)(NCCc1c[nH]c2ccccc12)c1nnnn1Cc1cccnc1,34,-1.36
Cc1csc([C@H](C)NC(=O)N(C)CC2(c3ccccc3)CC2)n1,-3,0.34
Cc1cc(C)cc(/N=C(/NC(=O)c2cccc(C)c2)N2CCN(Cc3cccc(F)c3)CC2)c1,-7,1.3
O=C([C@@H]1COCC(=O)N1Cc1ccccc1)N1CCOCC1,-9,1.04
Cc1cc2c(N[C@H]3C[C@H](c4nnc(CN(C)C)n4C)C3)ncnc2s1,-3,0.64
CN=C(NCCc1csc(C)n1)N1CCN(c2ccccn2)CC1,-4,0.49
CCCC[C@H](NC(=O)Nc1ccc(F)cc1C)C(N)=O,9,-0.86
Cn1cc(NS(=O)(=O)N2CCCCCC2)c(C(N)=O)n1,0,-0.03
COCCN(Cc1cncs1)C(=O)[C@H]1CCCN(C(C)=O)C1,-4,0.41
O=C1N[C@@](Cc2ccc(F)cc2)(C2CCN(Cc3ccc(F)c(F)c3)CC2)C(=O)N1C1CCCC1,-1,0.16
CC(=O)Nc1c(-c2ccccn2)nsc1C(=O)NCCC1=CCCCC1,-9,1.47
CCC(C(=O)NOCC(C)NC(=O)OC(C)(C)C)c1cccc(C(F)(F)F)c1 (stereo not drawn),4,-0.61
Cc1ccc(F)c(NC(=O)[C@H]2CCCN(CC(C)C)C2)c1,3,-0.65
CS(=O)(=O)C1CC2CCC(C1)N2C(=O)c1cccc(Oc2ccc(F)cc2)c1 (stereo not drawn),-15,1.86

Structure (SMILES),% Inhibition [%],Z score
COc1cccc(-n2c(=O)n(CC(C)C)c(=O)c3c2ncn3Cc2cccc(C)c2)c1,5,-0.64
CC(C)(C)c1cc(NC(=O)c2cc(O)nc3ccccc23)n([C@H]2CCS(=O)(=O)C2)n1,-6,0.87
Cc1cccc(-n2ncc(C(=O)N3CCc4nnc(N)cc4C3)n2)c1,-6,0.63
CCCCOc1ccc(-c2cc3c(N4CCN(C(=O)c5ccco5)CC4)nccn3n2)cc1,-10,1.99
Brc1cccc(-c2nnc3cc(-c4ccccc4)c4cc(Br)ccc4n23)c1,-4,0.45
CCS(=O)(=O)NC[C@H](C)NCCc1nc(C2CC2)no1,1,-0.25
CC(=O)c1cc(CN2CCOC[C@@H]2CC(=O)Nc2cccc(F)c2C)n(C)c1,-5,0.71
Cc1noc(C(C)C)c1NC(=O)[C@H]1CCn2c(cnc2C)C1,-2,0.3
CN1CC[C@H](NCc2ccccn2)C1=O,-3,0.48
Cc1cc2c(cc1S(=O)(=O)N1CCC[C@H](C(=O)N(C)C3CCCCC3)C1)OCC(=O)N2,-11,1.31
CCCN(CC1CC1)C[C@H](O)COc1ccccc1C(C)C,5,-0.86
CCc1nc(CC(=O)NCc2ccccc2)sc1C,-5,0.83
Cc1c(F)ccc(Cl)c1NC(=O)c1coc2c1C(=O)NCCC2,10,-1.29
Cc1nc(CNC(=O)c2cccc(-c3cn[nH]c3)c2)cs1,-15,2.35
COc1ccccc1-c1noc(CS(=O)(=O)C[C@H]2CCCO2)n1,-2,0.28
C[C@@H](c1nccs1)N1CCN(C(=O)c2cc3ccccc3c(=O)[nH]2)CC1,-4,0.48
O=C(NCc1cccnc1)c1cc2n(n1)CCN(Cc1ccccc1)C2=O,1,-0.1
CC[C@@H](CC#N)OC(=O)c1cncc(F)c1,-9,1.26
COc1ccc([C@@H]2Cn3cnc(-c4nc(-c5ccc(OC)cc5OC)no4)c3CO2)cc1,-4,0.33
COc1ccc(S(=O)(=O)N2C3CCC2CC(OC)C3)cc1Cl (stereo not drawn),3,-0.47
COC[C@H](NCC1(O)CCC(C)CC1)c1ccco1 (stereo partly drawn),-18,1.8
Cc1cscc1NC(=O)NCc1cnn(CCF)c1,-5,0.85
Cn1cc(S(=O)(=O)Nc2ccc(CC(=O)N3CCOCC3)cc2)cn1,-3,0.35
CN1CCCC[C@@H]1CN1CCN(C(=O)C2(C)COC(C)(C)OC2)CC1,-2,0.24
CCOCCC(=O)Nc1ccc(-c2ccccn2)cn1,-17,1.39
Nc1nc2c(s1)[C@@H](c1cccc(OCc3ccc(F)cc3)c1)CC(=O)N2,-10,0.97
CCOc1ccc(NC(=O)c2csc3c2CCCC3)cc1S(=O)(=O)N1CCCCC1,-10,1.31
